# Experimental data as given in PubChem BioAssay (Tox21).
# Inconclusive means that the source gave no clear call. Such entries were picked first, then a sample of the others. A potency beside an inconclusive call is a rough fit, not a confirmed value. Activity calls are given as the source filed them. The call rests on the fitted dose curve; in most records, active means well fitted curve in the direction sought with a large enough effect in the repeat runs; inconclusive means weak or mixed curves; inactive means no such curve, though single readings can be large; an effect the other way counts as inactive or inconclusive.
# Legend:
# [1] = qHTS RealTime-Glo MT Cell Viability Assay in HEK293 cells - 32 hour (AID 1224868); settings: RealTime-Glo luminescence; series mostly up to 76.8 µM; further: nearly all actives have a fitted effect of over 50% in size
# Summary of the method: (§1)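 HEK293 cells were seeded at 600 cells/well together with NanoLuc luciferase and cell-permeant prosubstrate, preincubated 5 h at 37 C/5% CO2, then given compound in DMSO by pintool. Luminescence from viable-cell prosubstrate reduction was read repeatedly over 40 h.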
# [2] = qHTS RealTime-Glo MT Cell Viability Assay in HEK293 cells - 40 hour (AID 1224874); settings: RealTime-Glo luminescence; max response: stronger effect = lower value; further: nearly all actives have a fitted effect of over 50% in size; on max response: on the % scale 0 is the no-effect control and ±100 the full control effect
# Summary of the method: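 Measured as luminescence from the same continuously cultured HEK293 wells at successive time points (0, 8, 16, 24, 32, 40 h) after compound addition. Reagent present from seeding; dosing at 5 h; incubation 37 C.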
# [3] = A CellTox Green Cytotoxicity Assay to monitor cytotoxicity in HEK293 cells - 0 hour (AID 1224869); settings: CellTox Green fluorescence; series mostly up to 76.8 µM; further: nearly all actives have a fitted effect of over 50% in size
# Summary of the method: (§2)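 Homogeneous no-lysis format: HEK293 cell suspension mixed with CellTox Green reagent, seeded, incubated 5 h at 37 C/5% CO2, then dosed by pintool with compound in DMSO.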
# [4] = A CellTox Green Cytotoxicity Assay to monitor cytotoxicity in HEK293 cells - 40 hour (AID 1224871); settings: CellTox Green fluorescence; series mostly up to 76.8 µM; further: nearly all actives have a fitted effect of over 45% in size
# Summary of the method: as §2
# [5] = A CellTox Green Cytotoxicity Assay to monitor cytotoxicity in HEK293 cells - 24 hour (AID 1224875); settings: CellTox Green fluorescence; series mostly up to 76.8 µM; further: nearly all actives have a fitted effect of over 45% in size
# Summary of the method: as §2
# [6] = qHTS RealTime-Glo MT Cell Viability Assay in HEK293 cells - 16 hour (AID 1224872); settings: RealTime-Glo luminescence; series mostly up to 76.8 µM; further: nearly all actives have a fitted effect of over 50% in size
# Summary of the method: as §1
# Potency means the concentration at half of the fitted maximal effect; tags describe the fitted curve by direction and shape.
smiles,measurement,setting,value
CNC,Potency,[1],"inconclusive: 5.49 µM [cytotoxic, single point]"
same,Potency,[2],"inconclusive: 5.49 µM [cytotoxic, single point]"
CCOC(=O)c1ccccc1N,Potency,[3],"inconclusive: 43.6 µM [activator, partial curve, poor fit]"
same,Potency,[4],"inconclusive: 49 µM [activator, partial curve]"
same,Potency,[5],"inconclusive: 38.9 µM [activator, partial curve]"
N[C@@H](Cc1ccc(N(CCCl)CCCl)cc1)C(=O)O,Potency,[1],"inconclusive: 4.77 µM [cytotoxic, full curve]"
same,Potency,[2],"inconclusive: 5.35 µM [cytotoxic, full curve]"
ClCc1ccccc1CCl,Potency,[1],"inconclusive: 49 µM [cytotoxic, single point]"
same,Potency,[6],"inconclusive: 54.9 µM [cytotoxic, single point]"
same,Potency,[2],"inconclusive: 49 µM [cytotoxic, single point]"
same,Potency,[5],inactive
CCOS(=O)(=O)OCC,Potency,[1],"inconclusive: 55 µM [cytotoxic, partial curve, poor fit]"
same,Potency,[2],"inconclusive: 55 µM [cytotoxic, single point]"
c1ccc(-c2cccc(-c3ccccc3)c2)cc1,Potency,[1],"inconclusive: 43.6 µM [cytotoxic, partial curve, poor fit]"
same,Potency,[6],"inconclusive: 49.5 µM [cytotoxic, partial curve, poor fit]"
same,Potency,[2],"inconclusive: 49 µM [cytotoxic, partial curve, poor fit]"
same,max response,[2],inactive: -23.8%
